The other results are listed elsewhere or left out. At the low end of the ranking, values are background and their order means little.

Drawing on publication PMC10668032, this text covers binding signal for 110 sequences.

The assay concerns the target SIX1 homeodomain (reference allele) (UniProt Q15475). In words: universal protein binding microarray. The note with it: Universal all-10-mer PBM (8x60K, AMADID 030236), 300 nM GST-tagged protein, Alexa Fluor 488 anti-GST; buffer, salt, pH and temperature not stated; high values mean tight binding; most listed sequences are background and not binding sites; double strand, one strand shown.
For CAACAGAG, the binding signal is -0.143 E-score. With ACGAACTG the figure was -0.18 E-score; with GCAGCAAC, -0.0465 E-score; with CGACAGTC, -0.288 E-score.

As to CGCGCGTC, the binding signal was -0.111 E-score.

Take CAACTCAA: the binding signal was -0.139 E-score. Turning to CGACTCAC, the binding signal is -0.0464 E-score.

In the case of AACCGCCC, the binding signal was -0.0199 E-score. Turning to CACGGTCC, the binding signal is -0.231 E-score. As for CAGCATGG, the binding signal was determined as 0.0221 E-score.

In the case of ACTGGGAT, the binding signal came to 0.239 E-score. Next, AGTTCCGG: 0.00713 E-score; CACCACTG: 0.0781 E-score. With ACCTCGTG the figure was 0.0662 E-score.

As to AAAAGGGC, the binding signal was -0.101 E-score. On to ACCAGGCT, for which the binding signal was 0.0157 E-score. Next, GGGGGAAC: -0.115 E-score; ATAGTGGC: 0.0268 E-score. Next, AGAAGCGA: -0.0723 E-score; CAGACCAA: -0.0504 E-score. Next, TCCGGAGA: -0.0926 E-score. Take AACGTCTC: the binding signal was determined as 0.0395 E-score.

As to AGGCCCGG, the binding signal is -0.179 E-score.

As to ATTGGCGC, the binding signal was -0.131 E-score. Next, CGGGATGC: -0.128 E-score; ACGAAATC: -0.103 E-score. With AGGTGCCC, the binding signal was -0.247 E-score. Next, AGCAACGG: -0.137 E-score. Next, AATTAATC: 0.0627 E-score.

In the case of ACGAGGAC, the binding signal is -0.0246 E-score. With AGAAAACG the figure was -0.106 E-score. On to ATCCATCA, for which the binding signal came out at 0.286 E-score.

On to GCTCCTGA, for which the binding signal was -0.0918 E-score. Regarding GCGGGAAA, the binding signal is -0.188 E-score. With CGAACCAG the figure was -0.0856 E-score; with GCCAACAA, -0.291 E-score; with GCCACTCA, -0.0675 E-score. With AAAAGAAT the figure was 0.0426 E-score; with CGTCCCTC, -0.125 E-score. Next, ACTCACTC: -0.0976 E-score; GACTCTGA: 0.0739 E-score. With AATGTGAT, the binding signal came to 0.178 E-score.

With ACGGCCAA, the binding signal was -0.104 E-score. With CAAGGGAC the figure was -0.303 E-score; with CCAAGGAC, -0.114 E-score. On to GCCATTCA, for which the binding signal is -0.0478 E-score. With AATGATGT the figure was -0.29 E-score. ATGCGTCA: the binding signal amounted to 0.0713 E-score.

CGTGTAAG: the binding signal stood at 0.0716 E-score. Next, CTGGGCGA: 0.0462 E-score; CGCACTAA: -0.168 E-score; CCGTTAGG: -0.0266 E-score.

ACCCGACG: the binding signal was -0.12 E-score. As to ACCCCCCG, the binding signal came to 0.168 E-score. With ACCACAGC the figure was -0.198 E-score; with ACCGCGCA, -0.0459 E-score. Next, ACACAAAA: -0.00483 E-score; TAATACTA: 0.276 E-score. With ATTTGTCA the figure was -0.031 E-score; with ACAAACAA, -0.24 E-score. Take AGGGACAG: the binding signal is -0.133 E-score. Next, ACTAGGTG: -0.0363 E-score; GGGGAATA: 0.0727 E-score; CTTCGGTC: -0.0715 E-score. With GCTGTCTA the figure was -0.134 E-score. Next, CTGTACAG: -0.179 E-score; ACGAACCA: -0.0843 E-score.

ATCTTAAT: the binding signal came out at 0.0937 E-score. Next, AGACTAAA: -0.108 E-score.

Turning to CCGAGAAG, the binding signal turned out to be 0.0888 E-score. With ACAATTAA the figure was -0.0308 E-score; with CATTGGGC, -0.211 E-score; with GTAGCATA, 0.00125 E-score.

Consider AGCACGCT, for which the binding signal was -0.189 E-score. With GAACACCC, the binding signal turned out to be 0.205 E-score.

Take ATGTGAGA: the binding signal stood at 0.165 E-score.

Regarding GATCTTAA, the binding signal came out at 0.111 E-score.

Turning to GATCAGCA, the binding signal came to 0.235 E-score.

Turning to GAGTGTTA, the binding signal is -0.0963 E-score. With CTAGGCGC the figure was -0.106 E-score; with GTGTGGGA, 0.0691 E-score; with AGGTTGTA, -0.0498 E-score. With CTCAAATA the figure was -0.0396 E-score; with AGGTACGC, -0.093 E-score; with CTCTCACC, 0.0859 E-score.

AACGCGTG: the binding signal is -0.19 E-score. Next, CTACACCC: 0.263 E-score. With GACCCTAA the figure was -0.0378 E-score; with ATACCTTA, 0.385 E-score; with AAGTGCGG, -0.116 E-score.

With AGTGAGAT, the binding signal is 0.306 E-score. For CCCGCCCC, the binding signal turned out to be 0.188 E-score. Take AACTCGAC: the binding signal was -0.0294 E-score. Regarding AGGACCCA, the binding signal was -0.105 E-score. Next, AGCTTTTA: -0.266 E-score; ACTCGCGC: -0.0626 E-score. On to AAAGGGTG, for which the binding signal stood at 0.0999 E-score. With ACGACCGG the figure was -0.0701 E-score; with CGAGTCCC, -0.168 E-score. TGGGTTAA: the binding signal turned out to be 0.000645 E-score. Turning to CGCTATTC, the binding signal worked out at 0.0301 E-score.

For GCGCACCC, the binding signal is -0.102 E-score. With ACCCGTAA the figure was 0.117 E-score; with TGGCTTAA, -0.139 E-score.

Regarding CCGTAACA, the binding signal was -0.18 E-score.

In the case of CCCTGCTA, the binding signal was 0.0184 E-score. With AAGAAAGA, the binding signal was -0.0922 E-score.

ACCAGATC: the binding signal amounted to 0.349 E-score.

As to ACTATCGA, the binding signal turned out to be 0.263 E-score. As for CGAGCTCA, the binding signal is -0.0261 E-score.
